{"source": "PubChem BioAssay AID1508623", "about": "(National Center for Advancing Translational Sciences (NCATS), 2021)", "note": "Out of some 48,000 compounds screened, about 450 (0.94%) were called active. About 19% were inconclusive and are not listed. The call rests on the fitted dose curve; in most records, active means well fitted inhibition curve with a large enough effect; inconclusive means small, poorly fitted or top-dose-only effect; inactive means no such curve, though single readings can be large or run the other way. The list shows a part of the results.", "data": [{"assay": "Primary qHTS for Identification of Small Molecule Inhibitors of Huntingtin Promoter Activity; further: nearly all actives have a fitted effect of over 50% in size", "conditions": "HEK293 HTT promoter firefly luciferase reporter (activity 0% = vehicle and -100% = no light), 24 h; series mostly up to 57.5 µM; activity change, negative = inhibition: at the top concentration", "procedure,_shortened": "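HEK293 cells carrying firefly luciferase reporters were seeded at 2,500 per well in Opti-MEM and cultured for 24 h. They were then treated with compounds at up to 57.5 uM final for 24 h at 37 degrees C before Dual-Glo luminescence readout.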", "values": [{"smiles": "COc1ccc(NC(=O)C2CCCN(S(=O)(=O)c3ccc(Cl)cc3)C2)cc1", "note": "(stereo unspecified)", "activity change, negative = inhibition": "inactive: -5.67%"}, {"smiles": "Cc1ccc(C)c(N2CCN(c3nccn4nc(-c5ccc(Br)cc5)cc34)CC2)c1", "activity change, negative = inhibition": "inactive: -2.69%"}, {"smiles": "Cc1ccc(Cl)cc1NC(=O)C(NS(=O)(=O)c1cccc2nsnc12)c1ccccc1", "note": "(stereo unspecified)", "activity change, negative = inhibition": "inactive: -34.5%"}, {"smiles": "O=C(COCc1cc(-c2cccs2)on1)NCc1ccccc1Cl", "activity change, negative = inhibition": "inactive: -27.5%"}, {"smiles": "COc1cc(C2c3c(oc4ccccc4c3=O)C(=O)N2c2nc(C)c(C)s2)ccc1O", "note": "(stereo unspecified)", "activity change, negative = inhibition": "inactive: -20.7% [at 11.5 µM]"}, {"smiles": "Cc1nc2nc(NC(=O)c3ccc(F)cc3)[nH]n2c(=O)c1Cc1ccccc1", "activity change, negative = inhibition": "inactive: 1.4%"}, {"smiles": "Cc1c(C(=O)OC2CCCCC2)[nH]c2c1C(=O)CC(c1ccccc1Cl)C2", "note": "(stereo unspecified)", "activity change, negative = inhibition": "inactive: -22.2%"}, {"smiles": "O=C(NCc1ccccc1F)C1CCN(Cc2cc3ccccc3n2Cc2cccc(Cl)c2)CC1", "activity change, negative = inhibition": "inactive: -4.8%"}, {"smiles": "Cn1c(=O)oc2cc(S(=O)(=O)CCC(=O)NCCc3ccccc3)ccc21", "activity change, negative = inhibition": "inactive: 8.75%"}, {"smiles": "CC(=O)c1cc(-c2ccc(F)cc2)n(CC(=O)NC(C)c2ccccc2)c1C", "note": "(stereo unspecified)", "activity change, negative = inhibition": "inactive: -11.9%"}, {"smiles": "Cc1cccn2c(=O)c(/C=C(\\C#N)c3nc4ccccc4s3)c(Oc3ccc(Br)cc3)nc12", "activity change, negative = inhibition": "inactive: 5.28%"}, {"smiles": "Cc1cc(C)n(-c2nnc(Nc3ccc(C(C)C)cc3)c3ccccc23)n1", "activity change, negative = inhibition": "inactive: -30.7%"}, {"smiles": "NCCNC(=O)c1ccc(Cl)cn1", "activity change, negative = inhibition": "inactive: 6.79%"}, {"smiles": "COc1ccc(CNCc2ccc3c(c2)n(C)c(=O)n3C)cc1", "activity change, negative = inhibition": "inactive: -14.3%"}, {"smiles": "COc1cccc(C(=O)NC(=O)Nc2ccc(-n3nc(C(F)(F)F)cc3C(F)(F)F)cc2)c1", "activity change, negative = inhibition": "inactive: 0%"}, {"smiles": "CC(=O)c1ccc(NC(=O)C2=CC(c3cccs3)=NS(=O)(=O)N2C)cc1", "activity change, negative = inhibition": "inactive: -20.5%"}, {"smiles": "COc1cc(Nc2nc(SCc3cccc(Cl)c3)nc3ccccc23)cc(OC)c1", "activity change, negative = inhibition": "inactive: -19.3%"}, {"smiles": "Fc1ccc(Nc2c3c(nc4nncn24)CCC3)cc1", "activity change, negative = inhibition": "inactive: -16.7%"}, {"smiles": "CCN(c1ccccc1)S(=O)(=O)c1ccc(NC(=O)c2cc(=O)c3ccc(C)c(C)c3o2)cc1", "activity change, negative = inhibition": "inactive: -18.7%"}, {"smiles": "Cc1ccc2c(CC(=O)Nc3c(C(=O)c4ccc(F)cc4)oc4ccccc34)coc2c1", "activity change, negative = inhibition": "inactive: -15.1%"}, {"smiles": "Nc1nc(Cl)nc2c1ncn2[C@H]1C[C@H](O)[C@@H](CO)O1", "activity change, negative = inhibition": "inactive: -9.61%"}, {"smiles": "Cn1cc(C(=O)[C@@H]2CCc3nc[nH]c3C2)c2ccccc21", "activity change, negative = inhibition": "inactive: -2.45%"}, {"smiles": "CCC(=O)OCc1cnc(C)c2oc(=O)c(C(=O)Nc3ccc(CC)cc3)cc12", "activity change, negative = inhibition": "inactive: 13.5%"}, {"smiles": "CC(NC(=O)C1CCN(C(=O)N2CCOc3ccc(Cl)cc32)CC1)c1ccccc1", "note": "(stereo unspecified)", "activity change, negative = inhibition": "inactive: -16.5%"}, {"smiles": "COc1ccc(-c2nc3c(c(SCc4cc(C)ccc4C)n2)Cc2c(CO)cnc(C)c2O3)cc1", "activity change, negative = inhibition": "inactive: -8.64%"}, {"smiles": "COc1ccc(N2CCN(C(=O)c3nn(C)c4c3CS(=O)(=O)c3ccccc3-4)CC2)cc1", "activity change, negative = inhibition": "inactive: -9.01%"}, {"smiles": "COc1ccc(CCNC(=O)CS(=O)Cc2nc(-c3ccc(C)cc3)oc2C)cc1OC", "note": "(stereo unspecified)", "activity change, negative = inhibition": "inactive: -25.9%"}, {"smiles": "O=C(CCSCc1ccc(Cl)cc1)N1CCN(c2ccccc2F)CC1", "activity change, negative = inhibition": "inactive: -21.4%"}, {"smiles": "COc1ccccc1Nc1nn2c(=O)c3ccc(C(=O)Nc4ccc(F)cc4)cc3nc2s1", "activity change, negative = inhibition": "inactive: -1.66%"}, {"smiles": "NC(=O)c1cc(S(=O)(=O)NCc2ccc(Br)cc2)cs1", "activity change, negative = inhibition": "inactive: -23.6%"}, {"smiles": "CCOc1ccc2oc(=O)cc(CN3CCN(C(=O)c4cccc(F)c4)CC3)c2c1", "activity change, negative = inhibition": "inactive: -17.2%"}, {"smiles": "CCCN(CCC)CCNC(=O)Cn1ncc2c([nH]c3ccc(C)cc32)c1=O", "activity change, negative = inhibition": "inactive: 7%"}, {"smiles": "Cc1cccc(C(=O)O)c1O", "activity change, negative = inhibition": "inactive: 10.6%"}, {"smiles": "CCOC(=O)c1ccc(NC(=O)CCc2c(C)n(CC)c3cc(-c4ccccc4OC)nn3c2=O)cc1", "activity change, negative = inhibition": "inactive: -1.97%"}, {"smiles": "CCc1cccc(-n2c(=O)c3cccnc3n2CC(=O)NCc2ccccc2Cl)c1", "activity change, negative = inhibition": "inactive: -26.4%"}, {"smiles": "CCOC(=O)c1[nH]c(C)c(CCC(=O)NCc2ccc(C)cc2)c1C", "activity change, negative = inhibition": "inactive: -8.13%"}, {"smiles": "CCOCCCNC(=O)c1cc2c(=O)n3ccccc3nc2s1", "activity change, negative = inhibition": "inactive: 53.7%"}, {"smiles": "O=C(/C=C\\c1ccc2c(c1)OCO2)NC1CC(=O)N(c2ccc(F)cc2)C1", "note": "(stereo unspecified)", "activity change, negative = inhibition": "inactive: -20.7%"}, {"smiles": "Cc1ccc(C)c(N2CCN(C(=O)c3cc4cc5ccc(C)cc5nc4s3)CC2)c1", "activity change, negative = inhibition": "inactive: 8.9%"}, {"smiles": "CC(C)(C)c1ccc(C(=O)Nc2cc(-c3ccccc3)nn2-c2ccccc2)cc1", "activity change, negative = inhibition": "inactive: -9.91%"}, {"smiles": "Cc1ccc(CNc2nc3c(S(=O)(=O)c4ccc(C)c(C)c4)nnn3c3ccc(Cl)cc23)cc1", "activity change, negative = inhibition": "inactive: 10.9%"}, {"smiles": "O=C(CN1CCN(c2ccc(Cl)cc2)CC1)Nc1ccc(Cl)c(C(F)(F)F)c1", "activity change, negative = inhibition": "inactive: -17.3%"}, {"smiles": "Cc1ccc(CSc2oc(-c3ccco3)nc2S(=O)(=O)c2ccc(Br)cc2)cc1", "activity change, negative = inhibition": "inactive: -15%"}, {"smiles": "CC1CCN(C(=O)CSc2nc3c([nH]c4ccccc43)c(=O)n2-c2ccccc2)CC1", "activity change, negative = inhibition": "inactive: 0.773%"}, {"smiles": "COc1ccccc1NC(=O)CSc1nnc(-c2nonc2NC(C)=O)n1-c1ccccc1", "activity change, negative = inhibition": "inactive: -27.9%"}, {"smiles": "CCOc1ccc(-n2c(=O)c3c4c(sc3n(Cc3cc(=O)n5cc(Cl)ccc5n3)c2=O)CCC4)cc1", "activity change, negative = inhibition": "inactive: 19.3%"}, {"smiles": "CCc1ccc(NC(=O)Cn2c(=O)n(Cc3nc(C)no3)c(=O)c3cc4c(cc32)OCO4)cc1", "activity change, negative = inhibition": "inactive: -2.02%"}, {"smiles": "CCc1ccccc1NC(=O)Cn1nnc(C(=O)Nc2ccc(OC)c(OC)c2)c1N", "activity change, negative = inhibition": "inactive: -2.88%"}, {"smiles": "CCCCN(Cc1ccco1)C(=O)c1cc2c(s1)-c1c(C)cccc1OC2", "activity change, negative = inhibition": "inactive: -24.6%"}, {"smiles": "CCOC(=O)c1ccccc1NC(=O)c1nn(-c2ccc(C)cc2)c(=O)n(C)c1=O", "activity change, negative = inhibition": "inactive: 0.431%"}, {"smiles": "Cc1c(NC(=O)C(F)(F)F)ccc2nc3c(=O)n(C)c(=O)n(C)c3nc12", "activity change, negative = inhibition": "inactive: 0%"}, {"smiles": "CCOCCCNC(=O)Cn1cc2c(n1)-c1c(oc(C(=O)N3CCCC3)c1C)CC2", "activity change, negative = inhibition": "inactive: -15.2%"}, {"smiles": "COc1c(Cl)cc(Cl)cc1/C=C(\\C#N)c1nc(-c2ccc(Cl)cc2)cs1", "activity change, negative = inhibition": "inactive: -36.8%"}, {"smiles": "COc1ccc(-n2ncc(C(=O)NCCCN3CCCCC3)c2C2CCN(C(=O)OC(C)(C)C)CC2)cc1", "activity change, negative = inhibition": "inactive: -8.17%"}, {"smiles": "COc1ccc(-c2cc(-c3ccc4c(c3)NC(=O)CO4)nc3c2COc2ccc(C)cc2-3)cc1", "activity change, negative = inhibition": "inactive: -10.9%"}, {"smiles": "CCc1ccccc1NC(=O)c1cnn(-c2ccc(F)cc2)c1C1CCNCC1", "activity change, negative = inhibition": "inactive: -7.79%"}, {"smiles": "Cc1cc(C)c(S(=O)(=O)N2CCC(N3CCN(Cc4ccc(F)cc4)C(=O)C3=O)CC2)c(C)c1", "activity change, negative = inhibition": "inactive: 2.79%"}, {"smiles": "CC(C)c1ccc(NC(=O)c2cnn3c(C(F)F)cc(-c4ccccc4)nc23)cc1", "activity change, negative = inhibition": "inactive: -1.57%"}, {"smiles": "Cc1ccccc1NC(=O)c1ccc(F)c(S(=O)(=O)N2CCc3ccccc3C2)c1", "activity change, negative = inhibition": "inactive: -41.2%"}, {"smiles": "COC(=O)Cn1ccc2cc(S(=O)(=O)N3CCCCC3)ccc21", "activity change, negative = inhibition": "inactive: -13.8%"}, {"smiles": "Cc1ccc(C(C)C)c(OCCCn2c(=O)oc3ccc(C)cc32)c1", "activity change, negative = inhibition": "inactive: -24.7%"}]}]}
